In the antibiotic and cytotoxicity screens of Wong et al. (2023):
The list shows a part of the results.

test system: S. aureus RN4220; assay: growth inhibition call (relative growth <= 0.2); conditions: 50 µM

Growth inhibition call, inactive:
c1ccc2c(c1)[nH]c1ncccc12, Cc1ccccc1CCCCN, Cc1noc(C)c1S(=O)(=O)Nc1ccc2c(c1)CC(=O)N([C@@H](C)CO)C[C@H](C)[C@@H](CN(C)S(=O)(=O)c1cccs1)O2, C[C@@H]1CCCCO[C@@H](CN(C)Cc2ccc(C(F)(F)F)cc2)[C@@H](C)CN([C@H](C)CO)C(=O)c2cc(NC(=O)CCC(F)(F)F)ccc2O1, COc1ccc(NC(=O)Nc2ccc3c(c2)CC(=O)N([C@@H](C)CO)C[C@@H](C)[C@@H](CN(C)Cc2ccc(Oc4ccccc4)cc2)O3)cc1, O=C(O)[C@H]1/C(=C/CO)O[C@@H]2CC(=O)N21, C[C@H](CO)N1C[C@H](C)[C@@H](CN(C)C(=O)Nc2ccccc2)Oc2ccc(NC(=O)CCN3CCOCC3)cc2C1=O, Cn1cnc(S(=O)(=O)N[C@@H]2CC[C@H](CC(=O)Nc3ccccc3)O[C@@H]2CO)c1, COc1ccc(S(=O)(=O)N(C)C[C@H]2Oc3ccc(NC(=O)Nc4c(C)noc4C)cc3CC(=O)N([C@@H](C)CO)C[C@H]2C)cc1, Cc1ccc(S(=O)(=O)Nc2ccc3c(c2)CC(=O)N([C@H](C)CO)C[C@@H](C)[C@@H](CN(C)CC2CC2)O3)cc1, CN1C(=O)c2cc(NC(=O)c3ccc(F)cc3)ccc2OC[C@H]2O[C@H](CC(=O)N3CCOCC3)CC[C@@H]21, C[C@@H]1CCCCO[C@H](CN(C)C(=O)NC2CCCCC2)[C@@H](C)CN([C@H](C)CO)C(=O)c2cc(NC(=O)Nc3ccc(C(F)(F)F)cc3)ccc2O1, Fc1ccc(-c2n[nH]c(=S)o2)cc1, COc1ccc([C@H]([C@@H](O)Cc2ccccc2)N(CC#C[C@@H](O)c2ccccc2)[C@@H](Cc2ccccc2)C(OC)OC)cc1, Nc1ncnc2c1ncn2[C@H]1O[C@@H](C(=O)N2CCN(CC(=O)Nc3cccc4c3CNC4=O)CC2)[C@H](O)[C@@H]1O, Cc1noc(C)c1NC(=O)N(C)C[C@@H]1Oc2ccc(NS(=O)(=O)c3ccccc3)cc2C(=O)N([C@H](C)CO)C[C@@H]1C, CN(C)c1ccc(C(=C2C=CC(=[N+](C)C)C=C2)c2ccc(N(C)C)cc2)cc1.[Cl-], NC(C(=O)O)C(O)C(O)C(O)CO (stereo not given), C[C@H]1CN([C@@H](C)CO)C(=O)c2cc(NS(=O)(=O)c3ccccc3)ccc2O[C@H]1CN(C)Cc1ccncc1, Cc1ccc(S(=O)(=O)N2C[C@@H](O)COC[C@@H]3O[C@H](CC(=O)NCCCN(C)C)CC[C@H]32)cc1, C[C@H]1CN([C@@H](C)CO)C(=O)c2cc(NC(=O)Nc3ccccc3)ccc2O[C@@H]1CN(C)Cc1ccc(C(F)(F)F)cc1, C[C@H]1CN([C@@H](C)CO)C(=O)c2cccc(NC(=O)C3CCOCC3)c2O[C@H]1CN(C)C(=O)Nc1ccc2c(c1)OCO2, CCNC(=S)N1CCCC[C@@H]1CO, CCCC#Cc1ccc2c(c1)O[C@@H](CN(C)Cc1ccc3c(c1)OCO3)[C@@H](C)CN([C@@H](C)CO)S2(=O)=O, C[C@@H]1CCCCO[C@H](CN(C)S(C)(=O)=O)[C@@H](C)CN([C@@H](C)CO)C(=O)c2cc(NS(=O)(=O)c3cn(C)cn3)ccc2O1, CC12CCC(=O)C=C1CCC1C2C(O)CC2(C)C1CCC2(O)C(=O)COP(=O)([O-])[O-].CC[NH+](CC)CC.CC[NH+](CC)CC (stereo not given), O=C(CCCCCCC(=O)Nc1ccccc1O)N/N=C/[C@H](O)[C@@H](O)[C@H](O[C@@H]1O[C@H](CO)[C@H](O)[C@H](O)[C@H]1O)[C@H](O)CO, COc1ccc(S(=O)(=O)N(C)C[C@@H]2Oc3cc(C#CC4CCCC4)ccc3S(=O)(=O)N([C@H](C)CO)C[C@@H]2C)cc1, C[C@H](CO)N1C[C@H](C)[C@@H](CN(C)Cc2ccc(C(F)(F)F)cc2)Oc2ccc(NS(=O)(=O)c3ccc(Cl)cc3)cc2C1=O, C[C@@H]1CCCCO[C@H](CN(C)C(=O)Nc2ccc(F)cc2)[C@H](C)CN([C@@H](C)CO)C(=O)c2cc(NC(=O)Nc3ccccc3)ccc2O1, CS(=O)(=O)Nc1ccc2c(c1)[C@@H]1C[C@H](CC(=O)NCc3ccc(-c4ccccc4)cc3)O[C@H](CO)[C@@H]1O2, C[C@@H]1CCCCO[C@H](CN(C)C(=O)C2CCCCC2)[C@H](C)CN([C@@H](C)CO)C(=O)c2cc(NC(=O)Nc3cccc4ccccc34)ccc2O1, Nc1cc(=O)nc2[nH][nH]c(=S)n12, C[C@@H]1CN([C@H](C)CO)C(=O)CCCn2nncc2CO[C@@H]1CN(C)C(=O)Nc1ccc2c(c1)OCCO2, C[C@@H]1CCCCO[C@H](CN(C)C(=O)C2CCCCC2)[C@@H](C)CN([C@@H](C)CO)C(=O)c2cc(NC(=O)Nc3ccc(C(F)(F)F)cc3)ccc2O1, Cc1noc(C)c1S(=O)(=O)Nc1ccc2c(c1)C(=O)N([C@@H](C)CO)C[C@H](C)[C@H](CN(C)S(C)(=O)=O)OCCCC[C@@H](C)O2, Cc1noc(C)c1S(=O)(=O)Nc1ccc2c(c1)C(=O)N([C@H](C)CO)C[C@H](C)[C@H](CN(C)C(=O)Nc1ccc(C(F)(F)F)cc1)OCCCC[C@@H](C)O2, [N-]=[N+]=N[C@]1(CO)O[C@@H](n2ccc(N)nc2=O)[C@H](O)[C@@H]1O, C[C@@H]1CN([C@@H](C)CO)S(=O)(=O)c2ccc(C#C[C@@H](C)O)cc2O[C@@H]1CN(C)C(=O)Cc1ccccn1

Growth inhibition call, active:
COC1(NC(=O)Cc2cccs2)C(=O)N2C(C(=O)[O-])=C(COC(N)=O)CSC21.[Na+] (stereo not given)
